MIC of invasive clinical C. tropicalis isolates, CLSI broth microdilution (fluconazole 0.12-256 mg/L, up to 1,024 for the azole-resistant cluster and its neighbour group; other ranges not stated); higher = less susceptible. Call: susceptible or wild type [S] / resistant or non-wild type [R] by CLSI breakpoints or cut-offs; intermediate and dose-dependent carry no call. '<=' and '>=' at the end values are inferred; the source marks only some of them. Isolates are numbered anew.
How the values were obtained:
Assay in all cases: CLSI broth microdilution.
itraconazole = compound: CCC(C)n1ncn(-c2ccc(N3CCN(c4ccc(OCC5COC(Cn6cncn6)(c6ccc(Cl)cc6Cl)O5)cc4)CC3)cc2)c1=O [itraconazole]
micafungin = compound: CCCCCOc1ccc(-c2cc(-c3ccc(C(=O)N[C@H]4C[C@@H](O)[C@@H](O)NC(=O)[C@@H]5[C@@H](O)[C@@H](C)CN5C(=O)[C@H]([C@H](O)CC(N)=O)NC(=O)[C@H]([C@H](O)[C@@H](O)c5ccc(O)c(OS(=O)(=O)O)c5)NC(=O)[C@@H]5C[C@@H](O)CN5C(=O)[C@H]([C@@H](C)O)NC4=O)cc3)no2)cc1 [micafungin]
anidulafungin = compound: CCCCCOc1ccc(-c2ccc(-c3ccc(C(=O)N[C@H]4C[C@@H](O)[C@@H](O)NC(=O)[C@@H]5[C@@H](O)[C@@H](C)CN5C(=O)[C@H]([C@@H](C)O)NC(=O)[C@H]([C@H](O)[C@@H](O)c5ccc(O)cc5)NC(=O)[C@@H]5C[C@@H](O)CN5C(=O)[C@H]([C@@H](C)O)NC4=O)cc3)cc2)cc1 [anidulafungin]
posaconazole = compound: CC[C@@H]([C@H](C)O)n1ncn(-c2ccc(N3CCN(c4ccc(OC[C@@H]5CO[C@@](Cn6cncn6)(c6ccc(F)cc6F)C5)cc4)CC3)cc2)c1=O [posaconazole]
caspofungin = compound: CC[C@H](C)C[C@H](C)CCCCCCCCC(=O)N[C@H]1C[C@@H](O)[C@@H](NCCN)NC(=O)[C@@H]2[C@@H](O)CCN2C(=O)[C@H]([C@H](O)CCN)NC(=O)[C@H]([C@H](O)[C@@H](O)c2ccc(O)cc2)NC(=O)[C@@H]2C[C@@H](O)CN2C(=O)[C@H]([C@@H](C)O)NC1=O [caspofungin]
voriconazole = compound: C[C@@H](c1ncncc1F)[C@](O)(Cn1cncn1)c1ccc(F)cc1F [voriconazole]
amphotericin B = compound: C[C@@H]1[C@H](O)[C@@H](C)/C=C/C=C/C=C/C=C/C=C/C=C/C=C/[C@H](O[C@@H]2O[C@H](C)[C@@H](O)[C@H](N)[C@@H]2O)C[C@@H]2O[C@](O)(C[C@@H](O)C[C@@H](O)[C@H](O)CC[C@@H](O)C[C@@H](O)CC(=O)O[C@H]1C)C[C@H](O)[C@H]2C(=O)O [amphotericin B]
flucytosine = compound: Nc1[nH]c(=O)ncc1F [flucytosine]
fluconazole = compound: OC(Cn1cncn1)(Cn1cncn1)c1ccc(F)cc1F [fluconazole]

Test System: Candida tropicalis isolate 332 (ERG11 copies: 2, Erg11p: no key change)
- MIC (itraconazole): 0.12 mg/L [S]
- MIC (micafungin): 0.03 mg/L [S]
- MIC (anidulafungin): 0.12 mg/L [S]
- MIC (posaconazole): 0.12 mg/L [S]
- MIC (caspofungin): 0.06 mg/L [S]
- MIC (voriconazole): 0.12 mg/L [S]
- MIC (amphotericin B): 0.5 mg/L [S]
- MIC (flucytosine): 0.12 mg/L [S]
- MIC (fluconazole): 2 mg/L [S]

Test System: Candida tropicalis isolate 333 (ERG11 copies: 2, Erg11p: no key change)
- MIC (itraconazole): 0.12 mg/L [S]
- MIC (micafungin): 0.03 mg/L [S]
- MIC (anidulafungin): ≤ 0.015 mg/L [S]
- MIC (posaconazole): 0.25 mg/L [S]
- MIC (caspofungin): 0.03 mg/L [S]
- MIC (voriconazole): 0.06 mg/L [S]
- MIC (amphotericin B): 1 mg/L [S]
- MIC (flucytosine): ≤ 0.06 mg/L [S]
- MIC (fluconazole): 1 mg/L [S]

Test System: Candida tropicalis isolate 334 (ERG11 copies: 2, Erg11p: no key change)
- MIC (itraconazole): 0.5 mg/L [S]
- MIC (micafungin): 0.06 mg/L [S]
- MIC (anidulafungin): 0.12 mg/L [S]
- MIC (posaconazole): 0.5 mg/L [R]
- MIC (caspofungin): 0.06 mg/L [S]
- MIC (voriconazole): 0.25 µg/mL
- MIC (amphotericin B): 0.5 mg/L [S]
- MIC (flucytosine): ≤ 0.06 mg/L [S]
- MIC (fluconazole): 4 µg/mL

Test System: Candida tropicalis isolate 335 (ERG11 copies: 2, Erg11p: no key change)
- MIC (itraconazole): 0.06 mg/L [S]
- MIC (micafungin): 0.015 mg/L [S]
- MIC (anidulafungin): 0.06 mg/L [S]
- MIC (posaconazole): 0.03 mg/L [S]
- MIC (caspofungin): 0.06 mg/L [S]
- MIC (voriconazole): ≤ 0.008 mg/L [S]
- MIC (amphotericin B): 1 mg/L [S]
- MIC (flucytosine): 0.12 mg/L [S]
- MIC (fluconazole): 0.25 mg/L [S]

Test System: Candida tropicalis isolate 336 (ERG11 copies: 2, Erg11p: no key change)
- MIC (itraconazole): 0.12 mg/L [S]
- MIC (micafungin): 0.03 mg/L [S]
- MIC (anidulafungin): ≤ 0.015 mg/L [S]
- MIC (posaconazole): 0.12 mg/L [S]
- MIC (caspofungin): 0.03 mg/L [S]
- MIC (voriconazole): 0.06 mg/L [S]
- MIC (amphotericin B): 1 mg/L [S]
- MIC (flucytosine): ≤ 0.06 mg/L [S]
- MIC (fluconazole): 2 mg/L [S]

Test System: Candida tropicalis isolate 337 (ERG11 copies: 2, Erg11p: no key change)
- MIC (itraconazole): 0.25 mg/L [S]
- MIC (micafungin): 0.03 mg/L [S]
- MIC (anidulafungin): 0.12 mg/L [S]
- MIC (posaconazole): 0.25 mg/L [S]
- MIC (caspofungin): 0.06 mg/L [S]
- MIC (voriconazole): 0.12 mg/L [S]
- MIC (amphotericin B): 2 mg/L [S]
- MIC (flucytosine): 0.12 mg/L [S]
- MIC (fluconazole): 2 mg/L [S]

Test System: Candida tropicalis isolate 338 (ERG11 copies: 2, Erg11p: no key change)
- MIC (itraconazole): 0.25 mg/L [S]
- MIC (micafungin): 0.03 mg/L [S]
- MIC (anidulafungin): 0.12 mg/L [S]
- MIC (posaconazole): 0.25 mg/L [S]
- MIC (caspofungin): 0.03 mg/L [S]
- MIC (voriconazole): 0.06 mg/L [S]
- MIC (amphotericin B): 1 mg/L [S]
- MIC (flucytosine): ≤ 0.06 mg/L [S]
- MIC (fluconazole): 1 mg/L [S]

Test System: Candida tropicalis isolate 339 (ERG11 copies: 3, Erg11p: Y132F, S154F (heterozygous))
- MIC (itraconazole): 1 mg/L [R]
- MIC (micafungin): 0.03 mg/L [S]
- MIC (anidulafungin): 0.12 mg/L [S]
- MIC (posaconazole): 1 mg/L [R]
- MIC (caspofungin): 0.06 mg/L [S]
- MIC (voriconazole): ≥ 8 mg/L [R]
- MIC (amphotericin B): 0.5 mg/L [S]
- MIC (flucytosine): ≤ 0.06 mg/L [S]
- MIC (fluconazole): 256 mg/L [R]

Test System: Candida tropicalis isolate 340 (ERG11 copies: 2, Erg11p: no key change)
- MIC (itraconazole): 0.25 mg/L [S]
- MIC (micafungin): 0.06 mg/L [S]
- MIC (anidulafungin): 0.12 mg/L [S]
- MIC (posaconazole): 0.25 mg/L [S]
- MIC (caspofungin): 0.03 mg/L [S]
- MIC (voriconazole): 0.12 mg/L [S]
- MIC (amphotericin B): 1 mg/L [S]
- MIC (flucytosine): ≤ 0.06 mg/L [S]
- MIC (fluconazole): 1 mg/L [S]

Test System: Candida tropicalis isolate 341 (ERG11 copies: 2, Erg11p: Y132F, S154F (heterozygous))
- MIC (itraconazole): 0.25 mg/L [S]
- MIC (micafungin): 0.03 mg/L [S]
- MIC (anidulafungin): 0.12 mg/L [S]
- MIC (posaconazole): 0.12 mg/L [S]
- MIC (caspofungin): 0.06 mg/L [S]
- MIC (voriconazole): 0.25 µg/mL
- MIC (amphotericin B): 1 mg/L [S]
- MIC (flucytosine): ≤ 0.06 mg/L [S]
- MIC (fluconazole): 4 µg/mL

Test System: Candida tropicalis isolate 342 (ERG11 copies: 2, Erg11p: no key change)
- MIC (itraconazole): 0.12 mg/L [S]
- MIC (micafungin): 0.03 mg/L [S]
- MIC (anidulafungin): 0.06 mg/L [S]
- MIC (posaconazole): 0.25 mg/L [S]
- MIC (caspofungin): 0.03 mg/L [S]
- MIC (voriconazole): 0.12 mg/L [S]
- MIC (amphotericin B): 1 mg/L [S]
- MIC (flucytosine): 0.12 mg/L [S]
- MIC (fluconazole): 2 mg/L [S]

Test System: Candida tropicalis isolate 343 (ERG11 copies: 2, Erg11p: no key change)
- MIC (itraconazole): 0.25 mg/L [S]
- MIC (micafungin): 0.03 mg/L [S]
- MIC (anidulafungin): 0.06 mg/L [S]
- MIC (posaconazole): 0.25 mg/L [S]
- MIC (caspofungin): 0.03 mg/L [S]
- MIC (voriconazole): 0.12 mg/L [S]
- MIC (amphotericin B): 1 mg/L [S]
- MIC (flucytosine): ≤ 0.06 mg/L [S]
- MIC (fluconazole): 2 mg/L [S]

Test System: Candida tropicalis isolate 344 (ERG11 copies: 2, Erg11p: no key change)
- MIC (itraconazole): 0.12 mg/L [S]
- MIC (micafungin): 0.03 mg/L [S]
- MIC (anidulafungin): 0.25 mg/L [S]
- MIC (posaconazole): 0.12 mg/L [S]
- MIC (caspofungin): 0.06 mg/L [S]
- MIC (voriconazole): 0.12 mg/L [S]
- MIC (amphotericin B): 0.5 mg/L [S]
- MIC (flucytosine): ≤ 0.06 mg/L [S]
- MIC (fluconazole): 2 mg/L [S]

Test System: Candida tropicalis isolate 345 (ERG11 copies: 2, Erg11p: no key change)
- MIC (itraconazole): 0.25 mg/L [S]
- MIC (micafungin): 0.03 mg/L [S]
- MIC (anidulafungin): 0.06 mg/L [S]
- MIC (posaconazole): 0.25 mg/L [S]
- MIC (caspofungin): 0.03 mg/L [S]
- MIC (voriconazole): 0.12 mg/L [S]
- MIC (amphotericin B): 1 mg/L [S]
- MIC (flucytosine): ≤ 0.06 mg/L [S]
- MIC (fluconazole): 2 mg/L [S]

Test System: Candida tropicalis isolate 346 (ERG11 copies: 9, Erg11p: Y132F, S154F (heterozygous))
- MIC (itraconazole): 1 mg/L [R]
- MIC (micafungin): 0.03 mg/L [S]
- MIC (anidulafungin): ≤ 0.015 mg/L [S]
- MIC (posaconazole): 1 mg/L [R]
- MIC (caspofungin): 0.03 mg/L [S]
- MIC (voriconazole): ≥ 8 mg/L [R]
- MIC (amphotericin B): 1 mg/L [S]
- MIC (flucytosine): ≤ 0.06 mg/L [S]
- MIC (fluconazole): 256 mg/L [R]

Test System: Candida tropicalis isolate 347 (ERG11 copies: 2, Erg11p: no key change)
- MIC (itraconazole): 0.25 mg/L [S]
- MIC (micafungin): 0.03 mg/L [S]
- MIC (anidulafungin): 0.12 mg/L [S]
- MIC (posaconazole): 0.25 mg/L [S]
- MIC (caspofungin): 0.12 mg/L [S]
- MIC (voriconazole): 0.12 mg/L [S]
- MIC (amphotericin B): 1 mg/L [S]
- MIC (flucytosine): ≤ 0.06 mg/L [S]
- MIC (fluconazole): 2 mg/L [S]

Test System: Candida tropicalis isolate 348 (ERG11 copies: 2, Erg11p: no key change)
- MIC (itraconazole): 0.25 mg/L [S]
- MIC (micafungin): 0.03 mg/L [S]
- MIC (anidulafungin): 0.03 mg/L [S]
- MIC (posaconazole): 0.25 mg/L [S]
- MIC (caspofungin): 0.03 mg/L [S]
- MIC (voriconazole): 0.12 mg/L [S]
- MIC (amphotericin B): 1 mg/L [S]
- MIC (flucytosine): ≤ 0.06 mg/L [S]
- MIC (fluconazole): 1 mg/L [S]

Test System: Candida tropicalis isolate 349 (ERG11 copies: 7, Erg11p: Y132F, S154F (heterozygous))
- MIC (itraconazole): 1 mg/L [R]
- MIC (micafungin): 0.03 mg/L [S]
- MIC (anidulafungin): 0.06 mg/L [S]
- MIC (posaconazole): 1 mg/L [R]
- MIC (caspofungin): 0.06 mg/L [S]
- MIC (voriconazole): ≥ 8 mg/L [R]
- MIC (amphotericin B): 2 mg/L [S]
- MIC (flucytosine): ≤ 0.06 mg/L [S]
- MIC (fluconazole): 512 mg/L [R]

From the supplement of paper PMC10724272
